# Out of some 390,000 compounds screened, about 930 (0.24%) were called active. Inconclusive results, whose numbers are uncertain, are shown with a selection of clear calls. Calls come from the whole dose curve; as a rule, active = well fitted activation curve with a large enough effect; inconclusive = small, poorly fitted or top-dose-only effect; inactive = no such curve, though single readings can be large or run the other way. Where the call is inconclusive, the potency comes from a doubtful curve fit.
# Experiment: qHTS for Suppressors of FUS Proteinopathy: Primary screen using FUS-linked yeast assay; note: nearly all actives have a fitted effect of over 55% in size;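 for growth rescue (activation): plate controls were DMSO vehicle for no effect and reference control for full effect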
# Conditions: S. cerevisiae FUS-expressing, OD600, 24 h; Potency: growth rescue; growth rescue (activation): at 76.6 µM (top of the series)
# Excerpt: Several widespread neurodegenerative diseases, including Alzheimer disease, Huntington disease, Frontotemporal Lobar Degeneration (FTLD) and Amyotrophic Lateral Sclerosis (ALS), share a common pathological feature, namely accumulation of specific protein aggregates in diseased tissue. These diseases which is associated with protein misfolding (proteinopathies) have become increasingly problematic as the population ages and life expectancies are extended. Most proteinopathies are currently incurable, a situation confounded by the fact that the basis of neurodegeneration is generally poorly understood. There exists urgent and significant need to find therapeutics that can inhibit the toxicity associated with protein aggregation. A novel approach to understand the underlying mechanisms of neurodegenerative diseases has recently emerged in which the disease conditions are modeled in the yeast (Saccharomyces cerevisiae), a tractable eukaryotic organism with conserved protein quality control mechanisms. Yeast offers quick and reliable genetic manipulations and can be easily tailored to high-throughput screening (HTS).
# For this project, a yeast model of the FUS proteinopathies (a spectrum of neurodegenerative diseases that include ALS and a subtype of FTLD) was generated and employed. The cytoplasmic accumulation of the DNA/RNA-binding protein FUS (also known as TLS) is causative to both familial and sporadic forms of ALS and FTLD. This yeast model recapitulates neuronal pathology by showing severe cytotoxicity associated with cytoplasmic accumulation of FUS aggregates and a specific interaction between FUS and TDP-43, another ALS-associated protein. […] Specifically, the cellular accumulation of misfolded FUS that disrupts RNA homeostasis in both yeast and higher eukaryotes. This model was validated to be suitable for quantitative HTS (qHTS) use for finding genetic or chemical factors that restore growth. […] Identified compounds that inhibits FUS-yeast toxicity is flagged, re-acquired, and validated for further investigation and optimization.
# NIH Chemical Genomics Center [NCGC]
# NIH Molecular Libraries Probe Production Centers Network [MLPCN]
# Assay Submitter (PI): Frank Shewmaker PhD, Uniformed Services University of the Health Sciences
# Compound CP55940 was used as the positive control. Column 1 was treated with CP55940 titration from 92uM (final concentration, 1:2 dilution), while Column 2 was treated with top dose 92uM. Columns 3 and 4 were treated with DMSO only as negative control to assess background and noise signal.
# Four hundred fifty microliter of cultured yeast (in 20mL rich medium) provided by Dr. Shewmaker lab was incubated at 30C at 99% humidity for 3hr. The culture was then spun down at 4000rpm for 5min and the cell pellet was resuspended in 2mL of Sdmin Media + ALU(330) + 2.5% Raffinose. One hundred microliter of the suspension was added to 900uL of water and OD of the solution was obtained. Twenty mL of responding medium (provided by Shewmaker lab) + 2.5% raffinose was added to ensure cell density of 0.1; the solution was incubated overnight. Working cell solution (FUS-yeast in Sdmi + Sdmi + 1X ALU + 2% galactose media) was prepared (final OD at 0.005) and 3uL was dispensed in a 1536-well Aurora high based clear bottom assay plates. Controls and library compounds (at various final concentrations from 40uM to 0.32uM) were added using a 1536-well pin array using the Kalypsys pin-tool. The plates were then incubated for 24hrs in a cell-culture incubator (30C; 99% humidity). Absorbance at 600nm was then read using the PerkinElmer ViewLux plate reader.
# Potency is the fitted concentration of half-maximal effect; tags give direction and shape of the fitted curve.
SMILES,Potency,growth rescue (activation)
COC(=O)C1=C(c2ccc(OC)c(OC)c2)C[C@@H]2CC[C@H]1N2C(=O)NCc1cccc2ccccc12,"inconclusive: 28.2 µM [activator, single point]",–
NC(=O)c1ccc(N=Cc2c(O)n(Cc3ccco3)c(=O)[nH]c2=O)cc1,"inconclusive: 15.8 µM [activator, single point]",–
COc1ccc(C(c2nnnn2Cc2ccccc2)N2CCC3(CC2)C(=O)NCN3c2ccccc2)cc1 (stereo unspecified),"inconclusive: 12.6 µM [activator, partial curve]",–
COc1ccc(C(CC(=O)c2ccc3c(c2)OCO3)c2c(O)c3ccccc3oc2=O)cc1OC (stereo unspecified),"inconclusive: 28.2 µM [activator, single point]",–
COc1ccc(-n2nnnc2C(c2ccnc3ccccc23)N2CCC3(CC2)C(=O)NCN3c2ccccc2)cc1 (stereo unspecified),"inconclusive: 25.1 µM [activator, partial curve, poor fit]",–
COC(=O)C1=C(c2ccc(OC(F)(F)F)cc2)C[C@@H]2CC[C@H]1N2C(=O)N1CCC(C)CC1,"inconclusive: 28.2 µM [activator, single point]",–
COc1cccc(C2CC3C(=O)C=CC2N3Cc2ccccc2)c1 (stereo unspecified),inactive,–
CN1C(=O)C(=Cc2ccccc2OCc2ccccc2Cl)C(=O)N(C)C1=O,inactive,–
CCc1ccccc1N1C(=O)/C(=C/c2ccc(N3CCN(C)CC3)o2)C(=O)NC1=S,"inconclusive: 28.2 µM [activator, single point]",–
COCc1cc(C2SCC(=O)Nc3c2c(=O)[nH]n3C(C)C)ccc1OC (stereo unspecified),"inconclusive: 7.08 µM [activator, partial curve, poor fit]",–
COc1ccc(-c2cc(=O)oc3c(C)c(OC(C)C(=O)N4C[C@H]5C[C@@H](C4)c4cccc(=O)n4C5)ccc23)cc1 (stereo partly specified),"inconclusive: 28.2 µM [activator, single point]",–
CC(=O)OC1N=C(c2ccccc2)c2cc(C)ccc2NC1=O (stereo unspecified),"inconclusive: 6.31 µM [activator, single point]",–
CCOc1ccc(N=Cc2c(O)n(-c3ccc(C)c(C)c3)c(=O)[nH]c2=O)cc1,"inconclusive: 50.1 µM [activator, single point]",–
COc1ccc(-n2nnnc2C(c2cccc3ccccc23)N2CCC(n3c(=O)[nH]c4ccccc43)CC2)cc1 (stereo unspecified),"inconclusive: 4.47 µM [activator, full curve]",–
CCn1c(O)c(C=NCc2cccs2)c(=O)[nH]c1=O,inactive,–
CC(C)[N+](C)(CCC(C(N)=O)(c1ccccc1)c1ccccc1)C(C)C,inactive,–
CC(C)[C@H]1C(=O)O[C@H](C(C)C)C(=O)N(C)[C@@H](C(C)C)C(=O)O[C@H](C(C)C)C(=O)N(C)[C@@H](C(C)C)C(=O)O[C@H](C(C)C)C(=O)N1C,"inconclusive: 10 µM [activator, partial curve]",–
COC(=O)C1=C(c2ccc(OC(F)(F)F)cc2)C[C@@H]2CC[C@H]1N2C(=O)N1CCCC1,"inconclusive: 31.6 µM [activator, single point]",–
Cc1ccc(NC(=O)CN2C(=O)CN=C(c3ccccc3)c3cc(Cl)ccc32)cc1,"inconclusive: 31.6 µM [activator, partial curve, poor fit]",–

SMILES,Potency,growth rescue (activation)
COC(=O)C1=C(c2ccc(F)cc2OCc2ccccc2)C[C@@H]2CC[C@H]1N2C(=O)NCc1ccccc1C(F)(F)F,"inconclusive: 3.98 µM [activator, full curve]",–
C/C1=C\[C@@H](C)C/C=C/[C@H]2[C@@H]3O[C@]3(C)[C@@H](C)[C@H]3[C@H](Cc4c[nH]c5ccccc45)NC(=O)[C@]32C(=O)/C=C/C(=O)[C@@H]1O,"inconclusive: 22.4 µM [activator, partial curve]",–
CSCCC(c1nnnn1-c1ccc2c(c1)OCCO2)N1CCC(n2c(=O)[nH]c3ccccc32)CC1 (stereo unspecified),active: 25.1 µM,–
COC(=O)C1=C(c2ccccc2OCc2ccccc2)C[C@@H]2CC[C@H]1N2C(=O)NCc1ccc(OC)cc1,"inconclusive: 28.2 µM [activator, single point]",–
CCOC(=O)[C@]12Cc3cc(Cl)ccc3[C@H]1N(Cc1ccccc1)C(=O)c1ccccc12,"inconclusive: 50.1 µM [activator, partial curve, poor fit]",–
COc1ccc(CN2CCN(Cc3ccccc3)CC2)c(OC)c1,–,inconclusive: 88.2% [activator]
CCOC(=O)c1ccc(N2C(=O)CC(N3CC=C(c4ccc(F)cc4)CC3)C2=O)cc1 (stereo unspecified),"inconclusive: 11.2 µM [activator, partial curve]",–
Cc1cccc(C)c1-n1nnnc1C(c1cccs1)N1CCC(n2c(=O)[nH]c3ccccc32)CC1 (stereo unspecified),"inconclusive: 31.6 µM [activator, single point]",–
O=C(COc1ccc(Cl)cc1Cl)N1CCN(C/C=C/c2ccccc2)CC1,inactive,–
O=C(Cn1ncc2c3ccccc3n(Cc3cccc(Cl)c3)c2c1=O)N1CCC2(CC1)OCCO2,"inconclusive: 39.8 µM [activator, single point]",–
Cc1ccc(-n2nc(C)c3c2NC(=O)CSC3c2ccc(O)cc2)cc1Cl (stereo unspecified),"inconclusive: 35.5 µM [activator, single point]",–
CCOC(=O)c1c(/N=C/c2c(O)n(-c3ccccc3F)c(=S)[nH]c2=O)sc2c1CCCC2,"inconclusive: 35.5 µM [activator, partial curve, poor fit]",–
C(=NN1CCCCCC1)c1c[nH]c2ccccc12,"inconclusive: 35.5 µM [activator, partial curve, poor fit]",–
COC(=O)C1=C(c2ccc(-c3ccccc3)c(F)c2)C[C@@H]2CC[C@H]1N2C(=O)N1CCCC1,"inconclusive: 50.1 µM [activator, single point]",–
CC1(C)C(C(=O)NCc2ccco2)C1(C)C,"inconclusive: 6.31 µM [activator, partial curve, poor fit]",–
COC(=O)C1=C(c2ccc(OCc3ccccc3)cc2)C[C@@H]2CC[C@H]1N2C(=O)NCc1ccccc1C(F)(F)F,"inconclusive: 17.8 µM [activator, single point]",–
O=C(c1ccco1)c1cn(Cc2ccccc2Cl)c2ccccc12,inactive,–
CCC1(CC)C(=O)N(Cc2ccccc2)C(=O)N(Cc2ccccc2)C1=O,–,inconclusive: 67.5% [activator]
C=CCn1c(O)c(C(CC)=NCc2cc(OC)cc(OC)c2)c(=O)[nH]c1=O,inactive,–

SMILES,Potency,growth rescue (activation)
CN1c2ccc([N+](=O)[O-])cc2CC2(C(=O)NC(=O)N(c3ccc(Br)cc3)C2=O)C1c1ccccc1 (stereo unspecified),active: 17.8 µM,–
CC(C)OCCCNC(=O)c1c(N)n(CC2CCCO2)c2nc3ccccc3nc12 (stereo unspecified),"inconclusive: 31.6 µM [activator, single point]",–
COC(=O)C1=C(c2cc3ccccc3o2)C[C@@H]2CC[C@H]1N2C(=O)NCc1ccc(F)cc1,"inconclusive: 15.8 µM [activator, partial curve]",–
Cc1c(Cl)cccc1NC(=O)CN1C(=O)C(C)N=C(c2ccccc2)c2ccccc21 (stereo unspecified),"inconclusive: 8.91 µM [activator, partial curve, poor fit]",–
COC(=O)C1=C(c2ccc(F)cc2OCc2ccccc2)C[C@@H]2CC[C@H]1N2C(=O)NCCOc1ccc(OC)cc1,"inconclusive: 15.8 µM [activator, partial curve, poor fit]",–
Cc1cccc(-c2nc3ccc(C(=O)N4CCC5(CC4)OCCO5)cc3nc2-c2cccc(C)c2)c1,"inconclusive: 12.6 µM [activator, partial curve, poor fit]",–
CC1Oc2cc3c(-c4c(O)cc(O)c5c(O)c6c(cc45)OC(C)C(C)C6=O)c(O)cc(O)c3c(O)c2C(=O)C1C (stereo unspecified),"inconclusive: 5.01 µM [activator, full curve]",–
CCN(CC)S(=O)(=O)c1ccc(NN=C(C#N)C#N)cc1,"inconclusive: 10 µM [activator, partial curve, poor fit]",–
CC1=C(C/C(C)=C/c2ccccc2)/C(=C/CO)[C@@H]2OC(=O)O[C@]2(C)C12CC2,"inconclusive: 28.2 µM [activator, partial curve, poor fit]",–
CCCNC1=C(C)C(=O)C2=C(C1=O)C(COC(N)=O)[C@]1(OC)C3NC3CN21 (stereo partly specified),"inconclusive: 5.62 µM [activator, partial curve]",–
C#CCCC[C@@H]1OC(=O)CNC(=O)C([C@@H](C)CC)NC(=O)[C@@H]2CCCN2C(=O)C([C@@H](C)CC)OC(=O)[C@H](Cc2ccccc2)N(C)C(=O)[C@H](C(C)C)NC(=O)C1(C)C (stereo partly specified),active: 7.94 µM,–
CCOC(=O)[C@]12Cc3cc4ccccc4cc3[C@H]1N(Cc1ccccc1)C(=O)c1ccccc12,"inconclusive: 31.6 µM [activator, single point]",–
O=C(NCC(c1cccnc1)N1CCN(c2ccccc2F)CC1)Oc1ccccc1 (stereo unspecified),inactive,–
Cc1cccc(C)c1NC(=O)c1cccn(Cc2ccc3c(c2)OC(F)(F)O3)c1=O,"inconclusive: 50.1 µM [activator, single point]",–
CCCCN1C(=O)/C(=C\c2ccco2)C(=O)N(CCc2ccccc2)C1=O,"inconclusive: 39.8 µM [activator, single point]",–
CN(C)C(=O)Oc1cccc(NC(=O)c2ccccc2C(F)(F)F)c1,inactive,–
COc1ccc(-n2nnnc2C(CCSC)N2CCC(n3c(=O)[nH]c4ccccc43)CC2)cc1 (stereo unspecified),"inconclusive: 20 µM [activator, partial curve]",–
CC(=O)O[C@H]1C(=O)[C@@]2(C)C([C@H](OC(=O)c3ccccc3)[C@]3(O)C[C@H](OC(=O)[C@H](O)[C@@H](NC(=O)Cc4ccccc4)c4ccccc4)C(C)=C1C3(C)C)[C@]1(OC(C)=O)CO[C@@H]1C[C@@H]2O (stereo partly specified),"inconclusive: 17.8 µM [activator, partial curve, poor fit]",–

# From PubChem BioAssay AID1347120 (National Center for Advancing Translational Sciences (NCATS), 2019)
